Measured values: PubChem BioAssay AID2675 (National Center for Advancing Translational Sciences (NCATS), 2010)
Hit rate of the full screen: of about 280,000 compounds, about 100 (0.036%) were called active. Inconclusive means that the source gave no clear call. Such entries were picked first, then a sample of the others. The call rests on the fitted dose curve; in most records, active means well fitted inhibition curve with a large enough effect in the signal ratio, with a control signal flat (not every such curve was filed as active); inconclusive means small, poorly fitted or top-dose-only effect, or effect the other way, or a change in a side signal; inactive means no such curve, though single readings can be large or run the other way; the % refers to the signal ratio. A potency beside an inconclusive call is a rough fit, not a confirmed value. “Side channel” marks fits to a control or component signal instead of the main read-out.
On the % scale 0 is the no-effect control and ±100 the full control effect; potency means the concentration at half of the fitted maximal effect; tags describe the fitted curve by direction and shape or compound fluorescence and quenching.

The molecules below were run against Muscleblind-like protein 1 (Homo sapiens) (UniProt Q9NR56) (assay: qHTS Assay for Inhibitors of MBNL1-poly(CUG) RNA binding). Settings: TR-FRET MBNL1-His/biotin-(CUG)12 binding, 665/545 ratio; activity change, negative = inhibition: at 57.5 µM (top of the series).
Sequence of UniProt Q9NR56 (Q9NR56 whole entry, looked up): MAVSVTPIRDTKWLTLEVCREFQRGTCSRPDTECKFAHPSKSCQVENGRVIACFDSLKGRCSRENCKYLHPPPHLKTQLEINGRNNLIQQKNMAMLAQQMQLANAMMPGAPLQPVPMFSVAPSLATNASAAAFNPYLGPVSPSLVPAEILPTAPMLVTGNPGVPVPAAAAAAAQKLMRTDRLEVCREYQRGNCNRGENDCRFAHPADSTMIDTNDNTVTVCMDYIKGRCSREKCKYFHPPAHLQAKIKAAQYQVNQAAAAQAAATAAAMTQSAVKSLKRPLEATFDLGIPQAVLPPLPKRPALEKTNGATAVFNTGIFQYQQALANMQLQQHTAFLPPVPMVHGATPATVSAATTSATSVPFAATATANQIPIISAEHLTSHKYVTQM
Summary of the method: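 TR-FRET readout: Ex 340 nm, 665/545 nm emission ratio, normalized to buffer-only (basal) and MBNL1-(CUG)12 controls. Complex of MBNL1-His with Biotin-(CUG)12, compounds 92 nM–58 uM, incubated 60 min at room temperature.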
With `Cc1ccc(NC(=O)Cn2nc(C(=O)O)c3ccccc3c2=O)c([N+](=O)[O-])c1` the Potency was inconclusive: 3.98 µM [quencher, side channel, full curve]. For `Cc1nn(-c2ccccc2)c2nc(N)c(C#N)c(-c3ccc(F)cc3)c12`, the Potency was inconclusive: 39.8 µM [fluorescent, side channel, partial curve]. With `COc1ccccc1/C=C/C(=O)NCC(=O)N=Nc1c(O)[nH]c2ccccc12` the Potency was inconclusive: 8.91 µM [quencher, side channel, partial curve]. With `Cc1ccc(/C=C(\NC(=O)c2ccccc2)C(=O)NCCc2ccccn2)o1` the Potency was inconclusive: 39.8 µM [quencher, side channel, single point]. With `Cc1ccc(C(=O)NC(=S)Nc2ccc3[nH]c(=O)[nH]c3c2)cc1` the Potency was inconclusive: 50.1 µM [inhibitor, single point]. `O=[N+]([O-])c1cccc(N2Cc3ccccc3C2)c1` was tested, and the Potency was inconclusive: 25.1 µM [quencher, side channel, partial curve]. `Cc1ccc2cc3c(NC(=O)c4cccnc4)nn(C)c3nc2c1` was tested, and the Potency was inconclusive: 11.2 µM [quencher, side channel, partial curve]. With `Cc1csc2c(N3CCN(C(=O)Nc4ccc(OC(F)(F)F)cc4)CC3)ncnc12` the “activity change, negative = inhibition” value was inactive: -6.66%. For `O=C(OCC(=O)N1CCN(C(=O)c2ccco2)CC1)c1cc(-c2ccc(F)cc2)nc2ccccc12`, the Potency was inconclusive: 12.6 µM [quencher, side channel, partial curve]. `CCN(CC)C(=O)Oc1ccc2c(c1)O/C(=C\c1ccco1)C2=O` was tested, and the Potency was inconclusive: 25.1 µM [quencher, side channel, single point]. With `CNC(=O)c1ccc(Nc2nnc(-c3ccc(C(N)=O)cc3)c3ccccc23)cc1` the Potency was inconclusive: 5.62 µM [quencher, side channel, partial curve]. For `Cc1nnc(-c2ccc(Oc3ccc(Cl)cc3)c([N+](=O)[O-])c2)o1`, the Potency was inconclusive: 3.16 µM [quencher, side channel, partial curve]. `CC1(C)CC(=O)C(N=Nc2ccc(C(F)(F)F)cc2[N+](=O)[O-])=C(O)C1` was tested, and the Potency was inconclusive: 1.12 µM [quencher, side channel, full curve]. For `CCc1ccc(-c2cc(C)no2)cc1S(=O)(=O)Nc1ccccn1`, the “activity change, negative = inhibition” value was inactive: 12.9%. For `N#Cc1nccnc1S(=O)(=O)c1cccs1`, the “activity change, negative = inhibition” value was inactive: 19%. `O=C(C[n+]1cc2ccccc2c2ccccc21)c1ccccc1` was tested, and the Potency was inconclusive: 14.1 µM [quencher, side channel, partial curve].
